Test results from PubChem BioAssay AID1645882 (National Center for Advancing Translational Sciences (NCATS), 2021).
The campaign covered roughly 16,000 compounds. About 120 (0.75%) were called active. Inconclusive results (about 4%) are left out. The call rests on the fitted dose curve; in most records, active means well fitted inhibition curve with a large enough effect; inconclusive means small, poorly fitted or top-dose-only effect; inactive means no such curve, though single readings can be large or run the other way. The list shows a part of the results.

What follows are compounds tested against Rap guanine nucleotide exchange factor 3 (Homo sapiens) (UniProt O95398) (assay: Validation qHTS for antagonist of cAMP-regulated guanine nucleotide exchange factor 3 (EPAC1)). Details: EPAC1 Rap1B-BODIPY-GDP exchange, fluorescence; series mostly up to 150 µM; activity change, negative = inhibition: at the top concentration.
Chain of UniProt O95398 (O95398 whole entry, looked up): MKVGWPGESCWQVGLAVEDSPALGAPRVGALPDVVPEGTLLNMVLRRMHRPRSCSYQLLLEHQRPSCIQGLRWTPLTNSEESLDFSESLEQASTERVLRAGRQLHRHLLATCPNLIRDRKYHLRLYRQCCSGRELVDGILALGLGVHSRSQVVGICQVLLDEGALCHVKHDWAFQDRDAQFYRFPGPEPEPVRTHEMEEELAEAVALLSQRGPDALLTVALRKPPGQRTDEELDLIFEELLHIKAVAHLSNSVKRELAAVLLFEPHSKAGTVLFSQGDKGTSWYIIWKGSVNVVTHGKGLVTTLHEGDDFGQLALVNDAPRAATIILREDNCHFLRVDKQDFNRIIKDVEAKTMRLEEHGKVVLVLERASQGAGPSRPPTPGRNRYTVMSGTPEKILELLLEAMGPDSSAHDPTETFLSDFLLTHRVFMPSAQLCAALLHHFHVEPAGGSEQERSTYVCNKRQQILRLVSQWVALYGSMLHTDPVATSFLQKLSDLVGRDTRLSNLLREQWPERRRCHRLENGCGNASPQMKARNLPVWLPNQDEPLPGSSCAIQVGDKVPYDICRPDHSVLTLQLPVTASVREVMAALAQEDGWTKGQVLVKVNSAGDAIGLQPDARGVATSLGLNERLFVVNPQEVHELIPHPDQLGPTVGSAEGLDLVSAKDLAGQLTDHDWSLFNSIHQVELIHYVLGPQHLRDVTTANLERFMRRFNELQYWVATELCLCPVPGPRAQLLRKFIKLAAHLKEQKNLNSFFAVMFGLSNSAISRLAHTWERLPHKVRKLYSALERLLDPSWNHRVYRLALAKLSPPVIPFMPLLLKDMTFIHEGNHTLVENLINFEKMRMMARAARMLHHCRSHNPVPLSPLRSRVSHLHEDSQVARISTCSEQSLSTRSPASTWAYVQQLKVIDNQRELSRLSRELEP
Summary of the method: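 Nucleotide exchange followed as fluorescence loss when BODIPY-GDP leaves Rap1B (480 nm excitation, 540 nm emission), read at 5 min intervals over 30 min. Reaction: 100 nM EPAC1, 250 nM RAP1B-BODIPY-GDP, 50 uM GDP; ATA and DMSO define normalization.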
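Further: plate controls were DMSO for no effect and ATA control for full effect; nearly all actives have a fitted effect of over 75% in size.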

Activity change, negative = inhibition, inactive:
CC(C)[C@@H]1CC[C@@H](C)CC1=O 16.2%
CCOC(=O)/C=C/c1ccc2oc3ccccc3c(=O)c2c1 12.3%
COC(=O)[C@H](CC(C)C)N(Cc1ccccc1)S(=O)(=O)N(Cc1ccccc1)[C@@H](CC(C)C)C(=O)OC -3.82%
O=c1c(CCc2ccccc2)nc2cncnc2n1C1CC1 1.27%
CC(C)C[C@H](NC(=O)[C@H](CCCCN)NC(=O)[C@H](CCCNC(=N)N)NC(=O)[C@H](C)NC(=O)[C@H](CO)NC(=O)[C@H](CCCCN)NC(=O)[C@H](CCCNC(=N)N)NC(=O)[C@H](C)NC(=O)CNC(=O)[C@@H](NC(=O)[C@H](Cc1ccccc1)NC(=O)CNC(=O)CNC(=O)[C@@H](N)Cc1ccccc1)[C@H](C)O)C(=O)N[C@@H](C)C(=O)N[C@@H](CC(N)=O)C(=O)N[C@@H](CCC(N)=O)C(=O)O -5.17% [at 15.3 µM]
CCN(Cc1ccncc1)C(=O)[C@@H](CO)c1ccccc1 10.4%
CN(C)c1ncc2nc(-c3cccs3)c(=O)n(Cc3cccs3)c2n1 25.7%
CCN(CC)CCOC(=O)c1cccnc1 3.74%
Oc1cc(-c2nc3ccccc3s2)cc2c1OCCN(Cc1cccn1-c1ccccn1)C2 -4.75%
CCC1(O)CC2CN(CCc3c([nH]c4ccccc34)[C@@](C(=O)OC)(c3cc4c(cc3OC)N(C=O)C3[C@]45CCN4CC=C[C@@](CC)([C@@H](OC(C)=O)[C@]3(O)C(=O)OC)[C@H]45)C2)C1 (some centres undefined) -0.743% [at 75.8 µM]
Cc1c(C(=O)NCC2CCCN(C)C2)cnn1-c1ncc2c(n1)-c1ccccc1CCC2 (centres undefined) 7.21%
CC(O)[C@@H]1NC(=O)[C@H](Cc2ccccc2)NC(=O)[C@H](C(C)O)NC(=O)[C@H](CCCCN)NC(=O)[C@H](Cc2c[nH]c3ccccc23)NC(=O)[C@H](Cc2ccccc2)NC(=O)[C@H](Cc2ccccc2)NC(=O)[C@H](CC(N)=O)NC(=O)[C@H](CCCCN)NC(=O)[C@@H](NC(=O)CNC(=O)[C@H](C)N)CSSC[C@@H](C(=O)O)NC(=O)[C@H](CO)NC1=O (some centres undefined) 12.5%
CCCCCCCCNC(C)C(O)c1ccc(SC(C)C)cc1 (centres undefined) -14.7%
O=C(c1ccncc1)N1CCC2(CCCN(c3ccncc3)C2)CC1 -3.1%
Cc1cc2nc3c(=O)[nH]c(=O)nc-3n(C[C@H](O)[C@H](O)[C@H](O)COP(=O)(O)OP(=O)(O)OC[C@H]3O[C@@H](n4cnc5c(N)ncnc54)[C@H](O)[C@@H]3O)c2cc1C 312%
CC(=O)CC(c1ccc([N+](=O)[O-])cc1)c1c(O)c2ccccc2oc1=O (centres undefined) 9.99% [at 75.8 µM]
O=C(O)c1cc([N+](=O)[O-])ccc1NCCCc1ccccc1
COc1ccccc1-c1cc(NCc2ccccc2)ncn1 11.7%
O=C(O)c1cc(NCc2cc(O)ccc2O)ccc1O -5.76%
COc1ccc(CNc2cc(-c3ccoc3)ncn2)c(OC)c1 7.51%
COc1cc2c(cc1OC)[C@@H]1C(=O)c3ccc4c(c3O[C@@H]1CO2)C=CC(C)(C)O4 -8.74%
CCOC(=O)c1ccc(N(C(=O)c2ccccc2)c2ccccc2)cc1 -28.4%
C(=C\c1c[nH]c2ccccc12)/c1cc[n+](C2CCCCC2)cc1 9.19%
CCCCCN=c1ccn(Cc2ccccc2)c2ccccc12 11.9%
COc1ccc(CN2[C@@H](CC(=O)O)c3ccc(C(F)(F)F)cc3S2(=O)=O)cc1 -9.27%
CCOC(=O)C1=C(N)Oc2ccc(Br)cc2[C@@H]1[C@@H](C#N)C(=O)OCC 0.667%
Cc1nnc(SCC2=C(C(=O)O)N3C(=O)[C@@H](NC(=O)Cn4cnnn4)[C@H]3SC2)s1
CCCCCCCCCCCCCCCCOCCOCCOCCOCCOCCOCCOCCOCCOCCOCCOCCOCCOCCOCCOCCOCCOCCOCCOCCOCCO -18.7%
Cc1ccc(C(=O)NCCc2nnc3n2CCN(C(=O)c2ccnc(Cl)c2)CC3)cc1 9.7%
CN(C)c1nc(N)c(C(=O)N=C(N)N)nc1Cl 13.7% [at 75.8 µM]
O=c1[nH]c(=O)n([C@H]2C[C@H](O)[C@@H](CO)O2)cc1C(F)(F)F 12.7%
CN(C)Cc1ccccc1-c1nc(NCc2cccs2)c2ccccc2n1 6.79%
CC(=O)OC1CC[C@@]2(C)C(CC[C@@]3(C)C2CC=C2C4CC(C)(C)CC[C@]4(C)CC[C@@]23C)C1(C)C (some centres undefined) 3.36%
Cn1cc(-c2nc3cnc(N4CCNCC4)nc3n(Cc3ccc(F)cc3)c2=O)c2ccccc21 -16.2%
COc1ccc(CNc2ccnc(-c3cccc(C#N)c3)n2)c(OC)c1 -18.2%
CC(C)[C@@H](N)C(=O)O 5.27%
O=C(O[C@H]1[C@H](Cc2ccccc2)NS(=O)(=O)[C@H]2CC3C=C[C@]12O3)c1ccc(Br)cc1 -10.1%
Cc1nn(C)c(Cl)c1CN1CCOc2ccc(CN3CCC(Oc4cccnc4)CC3)cc2C1 12.9%
OC[C@@H](O)COc1cccc2ccccc12 -1.51%
Cc1noc(C)c1-c1cncnc1NC1CC1 19%
CCCC(=O)O[C@]1(C(=O)CO)CC[C@H]2[C@@H]3CCC4=CC(=O)CC[C@]4(C)[C@H]3[C@@H](O)C[C@@]21C 11.6%
COc1cccc(N2[C@@H](CC(C)=O)c3ccc(/C=C/C(C)=O)cc3S2(=O)=O)c1 5.56%
CC1(C)[C@H](O[C@H]2O[C@H](C(=O)O)[C@@H](O)[C@H](O)[C@H]2O[C@@H]2O[C@H](C(=O)O)[C@@H](O)[C@H](O)[C@H]2O)CC[C@@]2(C)[C@H]1CC[C@]1(C)[C@H]2C(=O)C=C2[C@H]3C[C@@](C)(C(=O)O)CC[C@]3(C)CC[C@]21C 10%
C[C@@H](N)CCCP(=O)(O)O 31.2%
O=c1[nH]c2cc(Cl)c(Cl)cc2[nH]c1=O
COc1ccc(C(=O)N2CCC[C@@]3(CCN(CC(C)C)C3)C2)cc1 18.7%
N#Cc1cccc(NC(=O)N2CCCC3(CCN(C(=O)c4cccc(F)c4)CC3)C2)c1 8.86%
CN(Cc1ccco1)c1ncncc1-c1cccc(NS(C)(=O)=O)c1 5.08%
COc1ccc2nc(S(=O)Cc3ncc(C)c(OC)c3C)[nH]c2c1 (centres undefined) 7.86%
Cc1nc2c(O)cccc2c(=O)[nH]1 -7.9%
CCNc1ncc2nc(-c3ccc(F)cc3)c(=O)n(CCc3ccccc3)c2n1 13.1%
COc1ccc(CN2CCc3nnc(CNC(=O)c4cc(C)oc4C)n3CC2)c2ccccc12 2.26%
COc1cc(=O)n2c(c1C(=O)NCc1ccc3c(c1)OCO3)CCN(C(=O)c1ccccc1F)CC2 6.16%
O=S(=O)(c1ccccc1)N1CCC2(CCCN(c3ccccn3)C2)CC1 -16%
COCCn1c(=O)c(CCc2ccccc2)nc2cnc(OCc3ccccc3)nc21 4.22%
COCC(=O)Nc1cc(C(=O)NC2Cc3ccccc3C2)cc2nc(-c3cccnc3)n(C)c12 15.6%
Cc1noc(C)c1-c1nccc(N2CCN(C)CC2)n1 -7.22%
C=C(C)C1CC=C(C(=O)O)CC1 (centres undefined)
N[C@H](C(=O)O)[C@@H]1C[C@@H]1C(=O)O
O=C1[C@H](Cc2ccccc2)NCCCC[C@H](c2ccco2)N1Cc1ccccc1 -3.91%
COc1ccc(C(=O)N2CCC3(CC2)CCN(C(c2ccccc2)c2ccccc2)CC3)cc1 -10.8%
CN(C)CC[C@@H](c1ccc(Br)cc1)c1ccccn1
N#Cc1ccccc1-c1ccc2ncnc(NCc3cccnc3)c2c1 -1.83%
N#CCCn1c(=O)cnc2cnc(N3CCOCC3)nc21 12.9%
CCC(C)[C@@H](N)C(=O)O (some centres undefined)
Cc1cc(C(=O)NCc2nnc3n2CCN(Cc2ccc(F)cc2F)CC3)c(C)o1 12.8%
CC(=O)OCC(=O)[C@@]1(O)[C@H](OC(C)=O)C[C@H]2[C@@H]3CCC4=CC(=O)C=C[C@]4(C)[C@@]3(F)[C@@H](O)C[C@@]21C 26%
COCC1CCCN(Cc2ccc3c(c2)CN(C(=O)c2cnn(C(C)C)c2)CCO3)C1 (centres undefined) 14.9%
O=S1(=O)CCOC[C@H](CC2CCCCC2)N1Cc1ccc(F)cc1 4.77%
Cc1ccc2c(c1)CN(CCC(=O)NCc1cc(C)n(C)n1)CC(C)O2 (centres undefined) 5.77%
Clc1cccc(Nc2nnc(-c3ccccc3)c3ccccc23)c1
COc1ccc2c(c1)-c1nc(-n3ncc(C(=O)NCc4cccnc4)c3C3CC3)ncc1CC2 12.3%
CNC(=O)[C@H]1O[C@@H](n2cnc3c(NCc4ccc(I)cc4)nc(Cl)nc32)[C@H](O)[C@@H]1O 3.45% [at 75.8 µM]
CCNc1ncc2nc(C)c(=O)n(CCc3ccccc3)c2n1 13.3%
N[C@H](Cn1ccc(=O)n(Cc2ccccc2C(=O)O)c1=O)C(=O)O 7.97%
CC(C)Cn1cnc2c(N)nc3ccccc3c21 -9.49%
O=C(NCCc1nnc2n1CCN(CC1CC=CCC1)CC2)c1ccc(F)cc1 (centres undefined) 8.11%
COC(=O)c1cc(CNC(=O)c2ccccc2F)cc(NC(=O)c2ccccc2OC)c1 4.39%
CN(C)c1ncc2nc(-c3cccc(C#N)c3)c(=O)n(C[C@H]3CCCO3)c2n1 -1.09%
CNc1nc(-c2cccnc2)nc2ccccc12 -20.5%
C[C@]12O[C@H](C[C@]1(O)CO)n1c3ccccc3c3c4c(c5c6ccccc6n2c5c31)CNC4=O -1.92%
C[N+]1(CC(=O)c2ccc(Br)cc2)CCOCC1 16.3%
Cc1nc2ccc(NC(=O)Nc3ccnc4cccnc34)cc2o1 -10.7%
C[N+]1(CC(=O)c2ccc(Cl)c(Cl)c2)CCOCC1 17.2%
C[C@@H](N)C(=O)O
COc1ccc2c(c1)CCc1cnc(-n3ncc(C(=O)NCCN4CCOCC4)c3C)nc1-2 15%
CC(C)Oc1ccc(C(=O)NCC2Cc3cc(Cl)cc(-c4ncccn4)c3O2)cc1 (centres undefined) -23.3%
CC(=O)Nc1ccccc1-c1nc(CNC(=O)c2ccc(-c3ccccc3F)cc2)c(C)o1 7.36%
Cc1ncc2c(c1CNC(=O)/C=C/c1cccs1)CCN(C(=O)C1CC(=O)OC13CCCCC3)C2 (centres undefined) 17.6%
